The values that follow come from the supplement of paper PMC11417369.

± gives the standard deviation of the averaged measurements. The list shows a part of the results.

The test system of the assay is PfAP2-LT AP2 domain (GST-tagged). Put plainly: gcPBM binding intensity (ln(normalized median fluorescence intensity)); higher = stronger DNA binding. The gist of the method:
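DNA-binding domains from P. falciparum, fused to GST and produced in E. coli, were put on an Agilent 4 × 180k double-stranded probe array for 1 h in 1× PBS holding 1% milk, 0.2 mg/ml BSA, 0.5% salmon testes DNA and 0.03% Triton X-100. Probes were primer-extended, 36 bp long and drawn from intergenic genomic regions, with negative controls included. After Alexa488 anti-GST antibody detection and a 488 nm scan, binding intensity was set as the highest Masliner-normalised natural-log median intensity across replicate spots of either probe orientation.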
As to “ATGTCAGGGAAAAAAACACACAAGAGTATGATATGT [CACACA_site2180]”, the “gcPBM binding intensity (ln)” value amounted to 9.16 ± 0.45.

With “TATATATTTATATATTGTACACTCTTATGTAGTGTA [XGTACX_site210]”, the “gcPBM binding intensity (ln)” value was determined as 8.74 ± 0.4.

Regarding “TAAAAAAGAAAAAGAGCACACAAAAATATTTAACCT [CACACA_site8885]”, the “gcPBM binding intensity (ln)” value is 9.02 ± 0.47.

Consider “TTACATATTTTCATTTGTACATATTCATTTTTTTTC [XGTACX_site6988]”, for which the “gcPBM binding intensity (ln)” value amounted to 8.84 ± 0.44.

Regarding AAATAACCCACGTGCATGCACTTCAATAACTGAACT, the “gcPBM binding intensity (ln)” value is 9.15 ± 0.33.

As for “ATATATATATAATGTTGTACGTTTTATTCTCCCATT [XGTACX_site8071]”, the “gcPBM binding intensity (ln)” value came out at 9.17 ± 0.26.

In the case of “TTTATCATGAACAGAAGTACATTTATATCAATGTCT [XGTACX_site6470]”, the “gcPBM binding intensity (ln)” value was 8.65 ± 0.32.

As to “ATATATATATATTTTACACACAATGGAGAAAAAAAT [CACACA_site644]”, the “gcPBM binding intensity (ln)” value came to 9.04 ± 0.42.

Consider “TGGTATATACGACACACACACATATGTATAAATATA [CACACA_site6561]”, for which the “gcPBM binding intensity (ln)” value came out at 9.66 ± 0.4.

Take “TATTTTTAAAAGTTAACAGAAAAAATATAAATAAAT [GTGCAC_negctrl_site295]”: the “gcPBM binding intensity (ln)” value came out at 8.46 ± 0.41.

For the sequence “TACCATAATCAATGCACACATAACAAAATATTATTA [CACACA_site2722]”, the “gcPBM binding intensity (ln)” value came out at 9.03 ± 0.42.

On to “TGTAATAAAATAATTAGTACACATATATGTATATTT [XGTACX_site5896]”, for which the “gcPBM binding intensity (ln)” value is 8.72 ± 0.33.

Take “TTTTCCCTTTTTTCCGCACACAATAAAATAAATAAA [CACACA_site2807]”: the “gcPBM binding intensity (ln)” value was 8.66 ± 0.45.

On to “TGTTGTTACCTATATACACACATATAAATATTATAG [CACACA_site7180]”, for which the “gcPBM binding intensity (ln)” value is 8.88 ± 0.41.

As for “TTTTTCAGAAAAGAAACACACATATAAATATTTATA [CACACA_site7170]”, the “gcPBM binding intensity (ln)” value is 8.53 ± 0.4.

Turning to “AAAAAAAAAAAAAAAACACACAAGGATCAGATAGAT [CACACA_site7743]”, the “gcPBM binding intensity (ln)” value is 8.95 ± 0.47.

Turning to “AGGGCATATATATATGCACACATACATATATACATG [CACACA_site9282]”, the “gcPBM binding intensity (ln)” value worked out at 9.26 ± 0.46.

Consider “AATATTATGATATTATGTACATATTAAAAGCACCAC [XGTACX_site6236]”, for which the “gcPBM binding intensity (ln)” value came to 8.97 ± 0.37.

Take “TTTACACTTTTTTTTGTACACACTAAAAAGATTAAC [CACACA_site3933]”: the “gcPBM binding intensity (ln)” value amounted to 8.71 ± 0.42.

As for “TTTTCATTCTTTTCCTTTGATTTACAATAGTATATT [GTGCAC_negctrl_site687]”, the “gcPBM binding intensity (ln)” value turned out to be 8.75 ± 0.59.

Regarding CAAAATATTATCATGATGCACTTTACACTCTAAGGT, the “gcPBM binding intensity (ln)” value was found to be 8.97 ± 0.56.

Turning to “AAAAAATAAAAGTGGGGTACATGTCATTATGTGCAT [XGTACX_site3753]”, the “gcPBM binding intensity (ln)” value stood at 8.96 ± 0.45.

For the sequence “TCATTATATTATTCTTGTACTTATATCCTTTTTTGA [XGTACX_site5320]”, the “gcPBM binding intensity (ln)” value came out at 8.82 ± 0.56.

For “TAAAAGTTCACCTGTACACACATATATATCTGTACA [CACACA_site5019]”, the “gcPBM binding intensity (ln)” value was 9.28 ± 0.34.

In the case of “AATATAATATATTGCACACAAAAAGTGAATTATTCT [CACACA_site1684]”, the “gcPBM binding intensity (ln)” value came to 9.11 ± 0.29.

As for “GTTTATTAGGAATTATGTACACAGTTTTATAAAGAA [XGTACX_site2994]”, the “gcPBM binding intensity (ln)” value was 8.51 ± 0.47.

Consider “AATATATACATACATACATGCACATATATATATATA [TGCATGCA_site393]”, for which the “gcPBM binding intensity (ln)” value was 9.755 ± 0.05.

As to “AAATAGTTGTTATGGGTGCAAACCACATATATATAA [GTGCAC_site9428]”, the “gcPBM binding intensity (ln)” value was 8.75 ± 0.49.

With “AGGCCTTTTAGTATTTCACACACGTAAATGTGTATA [CACACA_site8284]”, the “gcPBM binding intensity (ln)” value was 9.24 ± 0.33.

Consider “ATTATTTACCACAACACACAAATATTTACCAATCAT [CACACA_site5472]”, for which the “gcPBM binding intensity (ln)” value is 9.02 ± 0.38.

Take “ATTTGTTTAAGTCACGAACACACATATATCATCAAT [CACACA_site985]”: the “gcPBM binding intensity (ln)” value amounted to 8.98 ± 0.42.

For “AAATATTATTCATTTTGTACGTATAATTTTTAATGA [XGTACX_site3509]”, the “gcPBM binding intensity (ln)” value turned out to be 8.72 ± 0.49.

“GATCTTTCACATATATATATAAAGGATATTATGGTA [CACACA_negctrl_site522]”: the “gcPBM binding intensity (ln)” value stood at 8.54 ± 0.4.

For the sequence “AGTAGTCTGGAGAAAAGTACACAGTATCTGGTAGCT [XGTACX_site2544]”, the “gcPBM binding intensity (ln)” value was 8.88 ± 0.49.

“TATAATAATCCACAAGCACACACACCCACATATATA [CACACA_site8343]”: the “gcPBM binding intensity (ln)” value turned out to be 9.91 ± 0.32.

For “ATTATATTATATTATACATGCATAATATTATATAAA [TGCATGCA_site647]”, the “gcPBM binding intensity (ln)” value was 8.6 ± 0.33.

Turning to “TTATTACACAAATGGTGTACTTTTGAGGAACCAAAA [XGTACX_site4279]”, the “gcPBM binding intensity (ln)” value worked out at 8.41 ± 0.48.

As for “ACATTGAATAAATAATGTACATATATAATATATATT [XGTACX_site95]”, the “gcPBM binding intensity (ln)” value worked out at 8.77 ± 0.4.

As to “AAATTAAATGTAAGCACACATAAATTATACGCATAT [CACACA_site3335]”, the “gcPBM binding intensity (ln)” value turned out to be 9.11 ± 0.38.

Consider “TTGCAGTATTTCGGAACACACAAACATAAATATGTA [CACACA_site5307]”, for which the “gcPBM binding intensity (ln)” value was found to be 8.74 ± 0.47.

Turning to “TATTCTAATATATGCATACACACAAATGTGAATATA [CACACA_site2143]”, the “gcPBM binding intensity (ln)” value turned out to be 8.82 ± 0.38.

With “CACATTATGTATCATACACACAAATAAATATAGAAT [CACACA_site609]”, the “gcPBM binding intensity (ln)” value was found to be 9.35 ± 0.33.

On to “TTTATATGTATTAAGTGTACACATATAATGTGTTTT [XGTACX_site4890]”, for which the “gcPBM binding intensity (ln)” value amounted to 8.88 ± 0.45.

In the case of “ATGTTTGATGCTACACGTACACACCTTGCAAATATT [XGTACX_site1644]”, the “gcPBM binding intensity (ln)” value came to 9.23 ± 0.31.

Regarding “TATATTATTCATTAAGCACACATTATTTTTATAATA [CACACA_site6056]”, the “gcPBM binding intensity (ln)” value amounted to 8.62 ± 0.47.
